Data published in PubChem BioAssay AID504845 (National Center for Advancing Translational Sciences (NCATS), 2011).
Screen size: about 390,000 compounds; about 150 (0.038%) were called active. This list was built around the results that the source calls inconclusive (neither active nor inactive); the mix of calls is not that of the screen. Calls come from the whole dose curve; as a rule, active = well fitted inhibition curve with a large enough effect; inconclusive = small, poorly fitted or top-dose-only effect; inactive = no such curve, though single readings can be large or run the other way. Potencies beside an inconclusive call are fits to weak or partial responses and may not hold up.

molecular target: Regulator of G-protein signaling 4 (Homo sapiens) (UniProt P49798); assay: Inhibitors of Regulator of G Protein Signaling (RGS) 4: qHTS; details: Transcreener GDP fluorescence polarization, RGS4-accelerated GTP hydrolysis; series mostly up to 114 µM; activity change, negative = inhibition: at the top concentration; note: nearly all actives have a fitted effect of over 75% in size
Procedure, shortened: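 MLSMR compounds (23 nl, pin-transferred) preincubated 10 min at room temperature with a 500nM (2x) first reagent, then RGS4 at 900nM (2x) plus Transcreener GDP mix added; fluorescence polarization (620/688 nm) read before and after 90 min at 30 °C.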
% is set by controls: 0 for no effect and ±100 for the full control effect; potency is the fitted concentration of half-maximal effect; tags give direction and shape of the fitted curve.

Chain of UniProt P49798 (P49798 whole entry, looked up): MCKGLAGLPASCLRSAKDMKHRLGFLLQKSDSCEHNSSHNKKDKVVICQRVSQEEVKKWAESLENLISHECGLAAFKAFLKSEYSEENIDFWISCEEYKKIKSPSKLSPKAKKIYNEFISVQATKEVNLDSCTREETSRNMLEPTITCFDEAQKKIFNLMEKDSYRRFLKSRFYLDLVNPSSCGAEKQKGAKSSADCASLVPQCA

| Compound | Potency | activity change, negative = inhibition |
| --- | --- | --- |
| O=C(Nc1cc([N+](=O)[O-])ccc1O)c1ccc2c(c1)C(=O)N(Cc1ccco1)C2=O | inconclusive: 79.4 µM [inhibitor, partial curve, poor fit] | – |
| C=CC[n+]1c(-c2ccc(OC)cc2)csc1NNC(=O)Nc1ccccc1 | – | inactive: -38.7% |
| COc1cccc(/C=C/C(=O)OCC(=O)NCCC2=CCCCC2)c1 | inconclusive: 20 µM [inhibitor, full curve, poor fit] | – |
| COc1ccc(Cl)cc1S(=O)(=O)N1CCCC1=O | inconclusive: 50.1 µM [inhibitor, partial curve, poor fit] | – |
| Cc1ccc(-n2ccnc(NCc3cccs3)c2=O)cc1C | inconclusive: 79.4 µM [inhibitor, single point] | – |
| C[c-]1[c-](C)[c-](C)[c-](C)[c-]1C.[Fe].c1cc2nccc(N3CCCC3)[c-]2c1 (stereo not given) | inconclusive: 25.1 µM [inhibitor, full curve, poor fit] | – |
| O=C(O)CCCC(=O)Nc1nncs1 | – | inactive: 11.3% |
| Cc1cccc(N(CC(=O)NCC2CCCO2)C(=O)CCC(=O)Nc2cc(C)on2)c1 (stereo not given) | inconclusive: 79.4 µM [inhibitor, single point] | – |
| COc1ccccc1Cc1nnc(NC(=O)C2CCN(C(=O)c3ccco3)CC2)s1 | inconclusive: 39.8 µM [inhibitor, partial curve, poor fit] | – |
| CCOC(=O)c1nc(C)nc(Sc2n[nH]c(-c3cc(C(F)(F)F)cc(C(F)(F)F)c3)n2)c1C | – | inactive: 5.37% |
| Cc1nn(Cc2cccc(C(=O)NC(C)c3ccc(C(C)(C)C)cc3)c2)c(C)c1[N+](=O)[O-] (stereo not given) | – | inactive: -10.9% |
| COc1ccccc1OCC(=O)Sc1ccc(C)cc1 | inconclusive: 11.2 µM [inhibitor, full curve, poor fit] | – |
| CCC1Oc2ccc(C)cc2N(CC(=O)N(Cc2cccnc2)Cc2ccc(C)o2)C1=O (stereo not given) | inconclusive: 17.8 µM [inhibitor, full curve, poor fit] | – |
| C=CCNC(=O)c1ccc(CN2CCC(Cc3ccccc3)CC2)cc1 | – | inactive: 6.65% |
| O=C(CCCCl)NC1=NN(c2ccccc2)C(=O)C1 | inconclusive: 56.2 µM [inhibitor, partial curve, poor fit] | – |
| C/C(=N/NC(=O)CNC(=O)c1ccccc1F)c1ccc2c(c1)CCCC2 | inconclusive: 17.8 µM [inhibitor, full curve, poor fit] | – |
| CCSc1nnc(Cn2c(=O)sc3ccccc32)n1C | inconclusive: 79.4 µM [inhibitor, partial curve, poor fit] | – |
| Cc1cccc(-n2c(SCc3ccc([N+](=O)[O-])cc3)nnc2-c2c[nH]c3ccccc23)c1 | – | inactive: 1.54% [at 56.9 µM] |
| Cc1onc(-c2c(Cl)cccc2Cl)c1C(=O)NCC1CCCO1 (stereo not given) | – | inactive: 18.9% |
| COc1ccc(C2=NN(c3nc(-c4ccccc4)c(CC(=O)O)s3)C(c3ccco3)C2)cc1 (stereo not given) | inconclusive: 89.1 µM [inhibitor, partial curve, poor fit] | – |
| Cc1ccc(-n2c(=O)[nH]c3sc4c(c3c2=O)CCNC4)cc1C | – | inactive: 1.56% |
| Cc1ccc2c(c1)sc1nc(=O)n(-c3cccc(Cl)c3)c(=O)n12 | inactive | – |

| Compound | Potency | activity change, negative = inhibition |
| --- | --- | --- |
| N#Cc1cnc2sc3ccccc3n2c1=N | – | inactive: -3.95% |
| CC(=O)N(CCC(c1ccco1)C(C)C)Cc1ccc(Cl)cc1 (stereo not given) | inconclusive: 56.2 µM [inhibitor, partial curve, poor fit] | – |
| CCOC(=O)Sc1nc2ncncc2[nH]1 | inconclusive: 89.1 µM [inhibitor, single point] | – |
| COCC(=O)Nc1sc2c(c1C(=O)OC)CCCC2 | – | inactive: -20.7% |
| COc1ccc(C(=O)CSc2nnc(-c3ccoc3C)n2CC2CCCO2)cc1 (stereo not given) | inconclusive: 100 µM [inhibitor, single point] | – |
| CCOC(=O)Cn1cc(/C=N/N2C(=O)C3C4C=CC(C4)C3C2=O)c2ccccc21 (stereo not given) | inconclusive: 50.1 µM [inhibitor, partial curve, poor fit] | – |
| O=C(Nc1ccc2c(c1)OCCO2)C1CCN(S(=O)(=O)c2cccc3nsnc23)CC1 | inconclusive: 89.1 µM [inhibitor, single point] | – |
| Clc1ccc(SCNc2ccccc2Cl)cc1 | inconclusive: 79.4 µM [inhibitor, partial curve, poor fit] | – |
| CC(C)OCCCn1c(=N)c(C(N)=S)cc2c(=O)n3ccccc3nc21 | inconclusive: 89.1 µM [inhibitor, partial curve, poor fit] | – |
| O=C(Nc1ccccc1)C(Cl)C(=O)c1ccccc1 (stereo not given) | inconclusive: 39.8 µM [inhibitor, partial curve, poor fit] | – |
| CC(=O)N(\C=C/C=C/C=C1\Sc2ccccc2C1=O)c1ccccc1 | inconclusive: 44.7 µM [inhibitor, partial curve, poor fit] | – |
| COc1ccc(-c2nnc(SCc3nnc(-c4ccc(Cl)cc4)o3)n2-c2ccccc2)cc1 | – | inactive: -9.37% |
| S=c1[nH]nc(-c2ccco2)n1-c1ccc(Cl)cc1 | inconclusive: 79.4 µM [inhibitor, partial curve, poor fit] | – |
| CCCCC/C=C\C/C=C\CCCCCCCC(=O)NCC(=O)O | inconclusive: 8.44 µM [inhibitor, partial curve, poor fit] | – |
| COc1ccc(N/C=C(\C(C)=O)c2ccc(OC)c(OC)c2)cc1OC | inconclusive: 89.1 µM [inhibitor, single point] | – |
| O=[N+]([O-])c1cccc(OCc2cn3cccnc3n2)c1 | inconclusive: 50.1 µM [inhibitor, partial curve, poor fit] | – |
| COc1cc(C(=O)NCCCNC(=O)c2cc(OC)c(OC)c(OC)c2)cc(OC)c1OC | – | inactive: 2.15% |
| S=C(c1cn(Cc2ccc(Br)cc2)c2ccccc12)N1CCOCC1 | inconclusive: 50.1 µM [inhibitor, partial curve, poor fit] | – |
| CCOC(=O)c1c(NC(=O)CSc2nc3cc(Cl)ccc3c(=O)n2Cc2ccco2)sc(C(=O)N(C)C)c1C | inconclusive: 17.8 µM [inhibitor, full curve, poor fit] | – |
| Cc1cc2[nH]c3ccccc3c2c(C)n1 | – | inactive: 3.61% |
| Cc1nc(C)c(-c2csc(Nc3ccc(N)cc3)n2)s1 | inconclusive: 79.4 µM [inhibitor, partial curve, poor fit] | – |
| COC(=O)CN1C(=O)N/C(=C/c2ccc(C)o2)C1=O | inconclusive: 56.2 µM [inhibitor, partial curve, poor fit] | – |

| Compound | Potency | activity change, negative = inhibition |
| --- | --- | --- |
| CC(=O)n1c2ccccc2c2ccccc21 | inconclusive: 100 µM [inhibitor, single point] | – |
| FC(F)(F)c1cc(-c2ccco2)nc(NCc2ccccc2)n1 | inconclusive: 50.1 µM [inhibitor, partial curve, poor fit] | – |
| O=c1[nH]cnc2c1sc(=S)n2-c1ccccc1 | inconclusive: 89.1 µM [inhibitor, partial curve, poor fit] | – |
| c1cncc(CNc2ncnc3ccc(-c4ccc5c(c4)OCCO5)cc23)c1 | inconclusive: 56.2 µM [inhibitor, partial curve, poor fit] | – |
| O=C(c1cccc(S(=O)(=O)N2CCOCC2)c1)N1CCC(Cc2ccccc2)CC1 | – | inactive: 1.67% |
| CN(C)c1ccc(NC(=O)c2ccc(N3CCOCC3)nc2)cc1 | inconclusive: 89.1 µM [inhibitor, partial curve, poor fit] | – |
| COc1ccccc1N1CCN(Cc2cc(COC(C)C)c3cccnc3c2O)CC1 | – | inactive: -8.76% |
| Cc1ccnc(NC(c2cc(C)ccc2O)c2ccc3cccnc3c2O)c1 (stereo not given) | inconclusive: 56.2 µM [inhibitor, partial curve, poor fit] | – |
| COc1ccc(C(=O)N2N=C(c3cccs3)CC2c2ccccc2O)cc1 (stereo not given) | – | inactive: 3.86% |
| O=C(O)c1cc(O)c2c(c1)[C@@H]([C@H]1c3cc(C(=O)O)cc(O)c3C(=O)c3c(O[C@@H]4O[C@H](CO)[C@@H](O)[C@H](O)[C@H]4O)cccc31)c1cccc(OC3O[C@H](CO)[C@@H](O)[C@H](O)[C@H]3O)c1C2=O (stereo not given in full) | inconclusive: 100 µM [inhibitor, partial curve, poor fit] | – |
| O=S(=O)(c1ccc(OCC(O)CN2CCc3ccccc3C2)cc1)N1CCOCC1 (stereo not given) | – | inactive: 23.4% |
| Cc1ccccc1OCC(=O)NCC(=O)OCC(=O)c1ccc(Br)cc1 | – | inactive: -14% |
| FC(F)(F)c1cccc(N2CCN(Cc3nnc(-c4ccccc4)o3)CC2)c1 | – | inactive: 13% |
| C(#Cc1ccccc1)C[N+]1(CC#Cc2ccccc2)CCCCC1 | inconclusive: 56.2 µM [inhibitor, partial curve, poor fit] | – |
| COc1ccc(S(=O)(=O)Nc2cc(SCC(=O)O)c(O)c3ccccc23)cc1 | inconclusive: 44.7 µM [inhibitor, partial curve, poor fit] | – |
| O=C(NC1CCCCC1)C(c1cccnc1)N(CCc1ccccc1)C(=O)Cc1cccs1 (stereo not given) | inconclusive: 79.4 µM [inhibitor, single point] | – |
| COc1ccc2c(c1)Cc1sc(NC(=O)c3cccc(Cl)c3)nc1-2 | inconclusive: 44.7 µM [inhibitor, partial curve, poor fit] | – |
| Oc1nc(Nc2ccccc2)sc1/C=C1\C=Nc2ccccc21 | – | inactive: 4.64% |
| COc1ccc(C(=O)Nc2ccc(O)c3ccccc23)cc1 | inconclusive: 79.4 µM [inhibitor, partial curve, poor fit] | – |
| CC1=NN(c2nc(-c3ccc(C)cc3)cs2)C(=O)C1N=Nc1cccc(O)c1 (stereo not given) | inconclusive: 17.8 µM [inhibitor, partial curve, poor fit] | – |
| Nc1scc2c(C(=O)O)nn(-c3ccccc3)c(=O)c12 | inconclusive: 39.8 µM [inhibitor, partial curve, poor fit] | – |
